Laboratory results: PubChem BioAssay AID504339 (National Center for Advancing Translational Sciences (NCATS), 2011)
The campaign covered roughly 390,000 compounds. About 17,000 (4.4%) were called active. This list was built around the results that the source calls inconclusive (neither active nor inactive); the mix of calls is not that of the screen. Calls come from the whole dose curve; as a rule, active = well fitted inhibition curve with a large enough effect; inconclusive = small, poorly fitted or top-dose-only effect; inactive = no such curve, though single readings can be large or run the other way. A potency beside an inconclusive call is a rough fit, not a confirmed value.

target: Lysine-specific demethylase 4A (Homo sapiens) (UniProt O75164); experiment: qHTS Assay for Inhibitors of JMJD2A-Tudor Domain; details: AlphaScreen JMJD2A-Tudor / H3K4me3 peptide binding; activity change, negative = inhibition: at 114 µM (top of the series); note: nearly all actives have a fitted effect of over 50% in size
% is set by controls: 0 for no effect and ±100 for the full control effect; potency is the fitted concentration of half-maximal effect; tags give direction and shape of the fitted curve.

UniProt O75164, sequence (O75164 whole entry, looked up, the tested form may be a part): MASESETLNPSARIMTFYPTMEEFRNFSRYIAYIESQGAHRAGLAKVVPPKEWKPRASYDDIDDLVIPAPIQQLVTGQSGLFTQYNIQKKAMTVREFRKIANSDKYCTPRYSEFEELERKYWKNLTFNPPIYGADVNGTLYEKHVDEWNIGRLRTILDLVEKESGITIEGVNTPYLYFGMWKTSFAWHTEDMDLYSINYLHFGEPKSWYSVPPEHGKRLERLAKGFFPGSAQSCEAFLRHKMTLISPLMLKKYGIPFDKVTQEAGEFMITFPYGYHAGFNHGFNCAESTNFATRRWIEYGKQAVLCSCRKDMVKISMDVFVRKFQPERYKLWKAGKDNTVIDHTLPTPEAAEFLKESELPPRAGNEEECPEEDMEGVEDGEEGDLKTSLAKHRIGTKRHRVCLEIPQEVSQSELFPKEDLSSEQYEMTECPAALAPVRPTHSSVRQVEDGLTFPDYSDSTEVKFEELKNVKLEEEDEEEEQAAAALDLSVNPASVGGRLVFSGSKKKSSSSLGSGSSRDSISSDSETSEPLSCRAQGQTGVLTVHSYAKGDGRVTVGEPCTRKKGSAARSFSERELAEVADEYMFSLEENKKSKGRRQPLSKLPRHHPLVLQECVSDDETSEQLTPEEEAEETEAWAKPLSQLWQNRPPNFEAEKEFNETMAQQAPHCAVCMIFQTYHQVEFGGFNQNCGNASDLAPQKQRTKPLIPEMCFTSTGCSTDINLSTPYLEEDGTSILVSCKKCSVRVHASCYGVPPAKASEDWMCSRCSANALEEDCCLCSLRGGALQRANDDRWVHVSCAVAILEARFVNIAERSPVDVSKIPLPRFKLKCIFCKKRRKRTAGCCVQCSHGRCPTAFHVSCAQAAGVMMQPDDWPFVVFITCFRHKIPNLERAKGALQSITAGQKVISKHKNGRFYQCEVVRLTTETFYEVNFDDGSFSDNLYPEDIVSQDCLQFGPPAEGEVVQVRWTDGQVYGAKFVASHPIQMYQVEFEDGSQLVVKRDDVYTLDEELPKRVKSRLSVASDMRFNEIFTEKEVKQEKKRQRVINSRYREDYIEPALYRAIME

Potency, inconclusive:
CCn1nc(C)c(/C=N/NC(=O)Cn2nccc2C)c1C 89.1 µM [inhibitor, single point]
C=CCNC(=O)C1CC2Cn3c(nc4cc(Cl)c(Cl)cc43)C2N1C (centres undefined) 3.16 µM [inhibitor, single point]
Cc1ccc(/C=N/Nc2ccc(F)cc2)s1 11.2 µM [inhibitor, single point]
CC(C)c1ccc(Nc2nnns2)cc1 89.1 µM [inhibitor, single point]
COc1ccc(NC(=O)CN2C(=O)NC(c3ccccc3)(c3ccccc3)C2=O)cc1OC 56.2 µM [inhibitor, partial curve]
Cc1ccc(-c2nnc(SCC(=O)c3ccc(Cl)cc3)n2-c2ccccc2)cc1 79.4 µM [inhibitor, partial curve]
COc1ccc(NC(=O)CN2C(=O)NC(C)(c3ccc4c(c3)OCO4)C2=O)cc1S(N)(=O)=O (centres undefined) 31.6 µM [inhibitor, single point]
CCC(=O)NCC(=O)OCC(=O)c1ccccc1 3.16 µM [inhibitor, single point]
O=S(=O)(c1ccccc1)c1nc(-c2cccs2)oc1NCC1CCCO1 (centres undefined) 39.8 µM [inhibitor, single point]
CCc1ccc(CN(Cc2ccco2)c2cnc(S(C)(=O)=O)nc2C(=O)Nc2c(C)cccc2C)cc1 11.2 µM [inhibitor, full curve, poor fit]
O=C(Nc1cccc(-c2nc3ncccc3o2)c1)c1sc2ccccc2c1Cl 50.1 µM [inhibitor, partial curve, poor fit]
COc1cc(/C=C/C(=O)OCC(=O)NC(=O)NC(C)C)cc(S(=O)(=O)N2CCc3ccccc32)c1OC 14.1 µM [inhibitor, full curve, poor fit]
CNC(=S)NN=C(C)c1ccc(OC)cc1O 8.91 µM [inhibitor, partial curve]
N#Cc1nc(Cc2cccc3ccccc23)oc1N1CCOCC1 50.1 µM [inhibitor, partial curve]
Cc1cc(N=CC2=C(O)CCCC2=O)no1 39.8 µM [inhibitor, single point]
CC(OC(=O)CCc1c[nH]c2ccccc12)C(=O)c1ccccc1 (centres undefined) 25.1 µM [inhibitor, full curve]
CCOC(=O)c1ccccc1NC(=O)COC(=O)c1cc([N+](=O)[O-])ccc1N1CCOCC1 12.6 µM [inhibitor, full curve]
Cc1c(C)n(Cc2ccccc2)c2ccc(C(=O)N3CCN(c4ccc(F)cc4)CC3)cc12 12.6 µM [inhibitor, full curve]
COc1ccc2c(c1)c(C(=O)CNc1nc(C)cs1)c(C)n2C 50.1 µM [inhibitor, partial curve]
CC(C)(C)c1nnc2sc(SCC(=O)N3CCc4ccccc43)nn2c1=O 25.1 µM [inhibitor, full curve]
Cn1c(C(=O)NC2CCCC2)cc2c(=O)n(C)c3ccccc3c21 17.8 µM [inhibitor, full curve]
COc1ccc(N2CCN(C(=O)C3CCCN(C(=O)c4cc5sccc5n4C)C3)CC2)cc1 (centres undefined) 100 µM [inhibitor, partial curve, poor fit]
COc1ccc(/C=C2\CN(Cc3ccccc3)C/C(=C\c3ccc(OC)cc3)C2=O)cc1 15.8 µM [inhibitor, partial curve]
CC(C)c1ccc(Nc2nnc(SCC(=O)c3nnc(-c4ccccc4)o3)s2)cc1 22.4 µM [inhibitor, single point]
CN(C)c1ccc(/C=C/C=N/Nc2nc(N3CCOCC3)nc(N3CCOCC3)n2)cc1 56.2 µM [inhibitor, partial curve]
Cc1ccc(Nc2nc(-c3ccc(C)cc3)c(CC(=O)O)s2)cc1 79.4 µM [inhibitor, partial curve]
CCCn1c(C2CCCN2c2nc(C)cs2)nc2cc(Cl)c(Cl)cc21 (centres undefined) 56.2 µM [inhibitor, partial curve]
COc1ccc(OC)c(N=Nc2c(O)c3ccccc3[nH]c2=O)c1 31.6 µM [inhibitor, partial curve, poor fit]
Cc1ccc(C)c(N2CCN(C(=O)c3cc4c(C)nc5ccccc5c4o3)CC2)c1 35.5 µM [inhibitor, partial curve]
CCC[C@@H](CN1CCC[C@H]1CN1C(N)=NC[C@@H]1Cc1ccccc1)N1C[C@@H]([C@H](C)CC)N(CCCC2CCCC2)C1=N 31.6 µM [inhibitor, partial curve]
CC1CCCN(CCSc2ccc(Cl)cc2)C1 (centres undefined) 1.58 µM [inhibitor, partial curve, poor fit]
CC(=O)NCCC(=O)Nc1cc(S(=O)(=O)Nc2ccc(Cl)cc2)ccc1N1CCCC1 50.1 µM [inhibitor, single point]
O=C(CN1CCN(Cc2ccccc2)CC1)Nc1ccc([N+](=O)[O-])cc1C(=O)Nc1ccccc1F 50.1 µM [inhibitor, partial curve]
Cc1c(C#N)c(N=CN(C)C)c(C(=O)c2ccccc2)n1-c1ccc(Br)cc1 56.2 µM [inhibitor, partial curve]
COc1ccc(OC)c(C(=O)NC(CC(N)=O)c2ccc(NCCN3CCCC3)c([N+](=O)[O-])c2)c1 (centres undefined) 17.8 µM [inhibitor, full curve, poor fit]
CCOP(=O)(OCC)C(C#N)=C1SCN(c2ccccc2)CS1 56.2 µM [inhibitor, partial curve]
COC(=O)C1=NN(c2ccc(C)cc2)C2(S1)SC(C(C)=O)=C(C)N2c1ccccc1 (centres undefined) 2.51 µM [inhibitor, full curve, poor fit]
Cn1c(N)c(C(=O)COC(=O)CCCc2c[nH]c3ccccc23)c(=O)n(C)c1=O 56.2 µM [inhibitor, partial curve, poor fit]
O=C(O)c1ccc(Cl)c(S(=O)(=O)NCc2cccnc2)c1 100 µM [inhibitor, partial curve]
COc1cc(NC(=O)c2noc(C)c2[N+](=O)[O-])c(OC)cc1Cl 50.1 µM [inhibitor, partial curve]

Potency, active:
COc1ccc(N/N=C(/C)c2cnnc(-c3ccccc3)n2)cc1 79.4 µM
CCN(CC)CCOC(=O)C(Cc1cccc2ccccc12)CC1CCCO1 (centres undefined) 20 µM
COc1ccc(N2CCN(C(=O)CSc3c4c(nc5ccc(Cl)cc35)CCCC4)CC2)cc1 22.4 µM
O=S(=O)(Nc1cccc2ccccc12)c1ccc2ccccc2c1 79.4 µM
COc1ccc(NC(=O)CSc2ncc(-c3ccc(F)cc3)n2Cc2ccco2)cc1 56.2 µM
Cc1ccc(S(=O)(=O)NCc2ccco2)cc1C(N)=O 25.1 µM
CCOc1ccc(C(=O)Nc2cc(NC(=O)c3ccc(OCC)c(Cl)c3)cc(C(=O)O)c2)cc1Cl 50.1 µM
CC(C)(C)C(=O)OCc1nc(-c2ccc(O)c(O)c2)cs1 3.55 µM
N#CCCn1cnc2c(=S)nc[nH]c21 35.5 µM
C=CC(=O)Nc1cccc(N(C)c2ccnc(Nc3ccc(N4CCN(C)CC4)cc3)n2)c1 14.1 µM

Potency, inactive:
Cc1cccc(N2C(=O)CC(N3CCN(c4ccc(Cl)cc4)CC3)C2=O)c1 (centres undefined)
Cc1ccc(N(C)S(=O)(=O)c2ccc3c(c2)NC(=O)C(C)S3)cc1 (centres undefined)
Cc1noc(C)c1C(=O)OCC(=O)N(C)C1CCS(=O)(=O)C1 (centres undefined)
O=C(Nc1cccc(O)c1)c1cc2nc(-c3ccc(Br)cc3)cc(C(F)(F)F)n2n1
Cc1oc(-c2ccccc2F)nc1CS(=O)(=O)CC(=O)N1CCN(Cc2ccccc2)CC1
CC(C)CCNC(=O)c1ccc2c(c1)NC(=O)C(C(C)C)N2 (centres undefined)
O=[N+]([O-])c1ccc(Cl)cc1NCc1cccnc1
CC(C(=O)Nc1ccc2c(c1)OCO2)N(C)CC(=O)Nc1ccccc1Cl (centres undefined)
Cc1cccc(NC(=O)CCC(=O)Nc2nnc(C(F)(F)F)s2)c1
CCc1cccc(NC(=O)CSc2nncn3c2cc2sccc23)c1
O=C(COC(=O)C1CCN(c2ccc(C(F)(F)F)cn2)CC1)Nc1cccc(F)c1
CCOC(=O)N1CCC(N2CCCC(C(=O)c3cccc(OC)c3)C2)CC1 (centres undefined)
Cc1ccc(N(CC(=O)NCc2ccco2)C(=O)CCC(=O)Nc2nccs2)cc1
CC1=C(C(=O)Nc2cccnc2)C(c2cccc(F)c2)n2nc(SCc3ccccc3F)nc2N1 (centres undefined)
O=C1COc2ccc(NC(=O)c3ccccc3C(=O)O)cc2N1
Cc1oc2ncn(CC(C)C)c(=O)c2c1C(=O)N(CCN(C)C)Cc1ccccc1
Cc1ccccc1OCc1nc2c3cnn(-c4cccc(F)c4)c3ncn2n1
CC1CCCCN1CCNC(=O)c1ccc2c(=O)n(Cc3ccc(Cl)cc3)c(=S)[nH]c2c1 (centres undefined)

Activity change, negative = inhibition, inconclusive:
CCOC(=O)c1c(-c2ccccc2)csc1NC(=O)C(C)NCc1ccco1 (centres undefined) -100% [inhibitor]
